Measurements reported in PubChem BioAssay AID1466 (National Center for Advancing Translational Sciences (NCATS), 2008).
Hit rate of the full screen: of about 200,000 compounds, about 10 (0.005%) were called active. The inconclusive results got no clear call from the source; some entries with a clear call stand among them for comparison. Calls follow the shape of the dose curve; as a rule, active = well fitted inhibition curve with a large enough effect; inconclusive = small, poorly fitted or top-dose-only effect, or effect the other way, or another doubt; inactive = no such curve, though single readings can be large or run the other way. Where the call is inconclusive, the potency comes from a doubtful curve fit.

Target: Lysosomal alpha-glucosidase (Homo sapiens) (UniProt P10253)
Experiment: qHTS Assay for Inhibitors of Human alpha-Glucosidase as a Potential Chaperone Treatment of Pompe Disease;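 as to activity change, negative = inhibition: plate controls were uninhibited enzyme wells for no effect and no-enzyme background for full effect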
Conditions: purified human GAA, 4-MU-alpha-glucoside fluorescence; activity change, negative = inhibition: at 76.9 µM (top of the series) unless noted
Summary of the method: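 Human enzyme at 4 nM with 400 uM 4-methylumbelliferyl-alpha-D-pyranoside, citrate/phosphate buffer pH 5.0, 0.005% Tween-20, 20 min at room temperature. Compounds up to 77 uM. 4-MU fluorescence (Ex 365/Em 440) read after NaOH/glycine stop; AC50 from Hill fit.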
Potency is read from the fitted curve at half-maximal effect; tags tell the direction and shape of the fitted curve.

Potency, inconclusive:
Cc1cc(C)n(-c2ccc(C(F)(F)F)cc2[N+](=O)[O-])n1 12.6 µM [inhibitor, single point]
CCOP(=O)(OCC)C(Nc1cccc(C(F)(F)F)c1)c1ccc(F)cc1 (centres undefined) 35.5 µM [inhibitor, single point]
COCCNC(=O)/C(C#N)=C/c1ccc(-c2ccc(S(=O)(=O)N3CCOCC3)cc2)o1 14.1 µM [inhibitor, partial curve]
CCc1ccc(C2C(C#N)=C(N)SC(N)=C2C#N)s1 50.1 µM [inhibitor, single point]
CCCS(=O)(=O)C(=C1Nc2ccccc2N1)S(=O)(=O)CCC 11.2 µM [inhibitor, single point]
COc1ccc(Cc2nnc(NC(=O)c3ccccc3[N+](=O)[O-])s2)cc1 0.282 µM [activator, full curve, poor fit]
Clc1ccc(/C=C/c2nc3ccccc3[nH]2)c(Cl)c1 35.5 µM [activator, partial curve]
O=C(CSc1nc2ccccc2c(=O)n1CCCN1CCOCC1)Nc1cccc(S(=O)(=O)N2CCCCCC2)c1 35.5 µM [inhibitor, partial curve]
Cc1cc(N2CCC(C)CC2)nc(-n2nc(C)cc2C)n1 4.47 µM [inhibitor, single point]
COc1cc(C(=O)OC2CSCC2NC(=O)c2ccccc2)cc(OC)c1OC (centres undefined) 39.8 µM [inhibitor, single point]
Cc1ccccc1CC1(CO)CCCN(Cc2nc(-c3cccs3)oc2C)C1 (centres undefined) 28.2 µM [inhibitor, partial curve]
CC1(C)CC(=O)C2=C(C1)N(CCN1CCOCC1)C1=C(C(=O)CC(C)(C)C1)C2c1cccc(F)c1 31.6 µM [activator, single point]
CCc1ccc(OCC(=O)N(C)C2CCS(=O)(=O)C2)cc1 (centres undefined) 50.1 µM [activator, single point]
Cc1ccc(C(=O)CC2(O)C(=O)N(Cc3ccc4c(c3)OCO4)c3ccccc32)cc1 (centres undefined) 28.2 µM [inhibitor, partial curve]
CS(=O)(=O)N(CC(=O)NCCSCc1cccc(Cl)c1)c1ccc2c(c1)OCO2 10 µM [inhibitor, full curve, poor fit]
C/C=C(\C)CN1CCN(c2cccc(C)c2C)CC1 31.6 µM [inhibitor, single point]
O=C(CSc1nncs1)NCCCc1ccccc1 50.1 µM [inhibitor, single point]
O=c1c2ccccc2c(-c2ccccc2)nn1-c1cc(Cl)ccc1[N+](=O)[O-] 10 µM [inhibitor, full curve, poor fit]
N#Cc1cnn2c3c(cnc12)C(=O)N1CCc2ccccc2C1C3 (centres undefined) 3.98 µM [activator, partial curve]
Cc1c(SCCO)c(=O)[nH]c2cc3c(cc12)OCO3 25.1 µM [activator, partial curve]
CN1CCN(Cc2nc3ccccc3c(=O)n2Cc2nc(-c3ccc4ccccc4c3)cs2)CC1 50.1 µM [inhibitor, single point]
COc1ccc(NC(=O)CN2C(=O)CSC2=O)cc1 11.2 µM [inhibitor, single point]
Nc1nc(CN2CCN(c3ccccc3F)CC2)nc(Nc2ccc3c(c2)OCCO3)n1 22.4 µM [inhibitor, single point]
Cc1ccccc1-n1nc2c(c1NC(=O)c1cccc(F)c1)CS(=O)C2 (centres undefined) 0.178 µM [inhibitor, full curve, poor fit]
COc1ccccc1NC(=O)CC1C(=O)NCCN1C(=O)Nc1ccccc1 (centres undefined) 0.316 µM [inhibitor, full curve, poor fit]
O=c1c2ccccc2[nH]c2ccccc12 39.8 µM [activator, partial curve]
CC(C)CC(=O)NC(Nc1ccccc1F)C(Cl)(Cl)Cl (centres undefined) 12.6 µM [inhibitor, partial curve]
Cc1ccc(C(=O)N/N=C\c2cc(Br)c(Br)o2)cn1 56.2 µM [inhibitor, partial curve, poor fit]
CCSC1(SCC)N=C(N)C2(C#N)C(c3ccccc3)NC(C)=C(C)C12C#N (centres undefined) 0.794 µM [inhibitor, full curve, poor fit]
O=S(=O)(c1cccs1)N1CCN(CC(O)COc2cccc(Br)c2)CC1 (centres undefined) 56.2 µM [inhibitor, single point]
COCCOC(=O)C1=C(C)N=c2s/c(=C\c3cccs3)c(=O)n2C1c1cccs1 (centres undefined) 50.1 µM [inhibitor, single point]
Cc1ccc(C)c2[nH]c(=O)c(CN(CCN3CCCC3)C(=O)Nc3cccc(Cl)c3)cc12 39.8 µM [inhibitor, single point]
CCCCCCc1cc2cc(S(=O)(=O)c3ccc(F)cc3)c(=O)oc2cc1O 31.6 µM [activator, partial curve]
Cc1ccc(S(=O)(=O)c2c(N)n(Cc3ccco3)c3nc4ccccc4nc23)cc1C 50.1 µM [activator, single point]
O=C1CCCN1CCC1CCN(C(=O)Nc2ccccc2)CC1 35.5 µM [activator, single point]
CC1=C(C(=O)OC(C)C)C(c2cccnc2)C2=C(CC(C)(C)CC2=O)N1 (centres undefined) 28.2 µM [activator, partial curve]
Cc1nc2ccc(NC(=S)NC3CCCCC3)cc2nc1C 35.5 µM [inhibitor, single point]
Cc1ccc(NC(=O)CN(c2ccc(C)cc2)S(=O)(=O)c2cccc3nonc23)cc1 8.91 µM [inhibitor, full curve, poor fit]
O=C(Nc1ccc2c(c1)OCO2)c1ccc(N2C(=O)c3ccccc3C2=O)cc1 5.62 µM [inhibitor, single point]
CCN(C(=O)CC(C)C)c1nnc(Cn2nnc3ccccc32)s1 15.8 µM [inhibitor, partial curve]
O=C1c2cccc3cccc(c23)C(=O)N1c1ccccn1 10 µM [activator, partial curve]
COc1ccc(N/N=C(/Oc2ccc([N+](=O)[O-])cc2)C(C)=O)cc1 35.5 µM [inhibitor, single point]
CCOC(=O)c1ccc(NC(=S)N2CCSC2c2ccc(Cl)cc2)cc1 (centres undefined) 22.4 µM [inhibitor, partial curve, poor fit]
CNc1sc(C(=O)c2cccs2)c(N)c1-c1nc2ccccc2s1 50.1 µM [inhibitor, single point]
COc1cc(SC)ccc1C(=O)N(C)Cc1ccccc1 11.2 µM [inhibitor, single point]
CNCc1cc(Cl)cc(OC)c1OC(C)C 7.08 µM [inhibitor, full curve, poor fit]
CC(=O)Cn1ncc(N2CCCCC2)c(Cl)c1=O 1.41 µM [inhibitor, full curve, poor fit]
COc1ccc(Nc2nnc(SC(C(=O)Nc3cc(C)ccc3C)c3ccccc3)s2)cc1 (centres undefined) 1.58 µM [inhibitor, full curve]
COc1cccc(N=c2oc3cc(O)ccc3cc2C(=O)NCC2CCCO2)c1 (centres undefined) 28.2 µM [activator, partial curve]
CCOc1ccc(N2C(=O)CC(N(CCc3ccc(OC)cc3)C(=O)c3cccc(F)c3)C2=O)cc1 (centres undefined) 12.6 µM [inhibitor, partial curve]

Activity change, negative = inhibition, inactive:
CCOC(=O)NC1(NCC(C)C)Oc2ccccc2O1 -3.11%
CCS(=O)(=O)Nc1c(C(=O)O)[nH]c2ccccc12 -7.09%
CCCn1c(C)cc(C)c(C#N)c1=O -4.81%
COc1ccc(S(=O)(=O)N2CC=C(C(=O)Nc3ccc(NC(C)=O)cc3)CC2)cc1 -4.73%
COc1ccc(S(=O)(=O)Nc2cc(C)c(O)cc2C(C)C)cc1 -1.35%
CC(C)(C)N=C1SCC(C)(/C=N/O)S1 (centres undefined) 2.04%

Activity change, negative = inhibition, inconclusive:
O=C(Cc1ccccc1)NNS(=O)(=O)c1ccc(F)cc1 13.9% [activator]
Cc1ccc(S(=O)(=O)Nc2ccc3[nH]c(=O)[nH]c3c2)c(C)c1 17.6% [activator]
O=C(NNC(=O)C1CCN(Cc2ccc(Cl)c(Cl)c2)CC1)c1cccs1 15.8% [activator]
COc1ccc(C(=O)Nc2ccc(NC(=O)c3cccs3)c(OC)c2)cc1Cl 17% [activator]
CCN(CC)Cc1c[nH]c2c(C(=O)OC)cccc12 -4.46% [inhibitor] [at 15.4 µM]
COc1ccc(-n2nnnc2-c2nc3ccccc3s2)cc1 15.4% [activator]
C=CCN(C(=O)CNC(=O)c1ccco1)C(C(=O)NC1CCCC1)c1cccs1 (centres undefined) 7.07% [activator]
CC(=O)N(C1CC(C)C(C#N)(C#N)C1(C#N)C#N)N(C)C (centres undefined) -18.8% [inhibitor]
